PMC10547799
Results are given in words; binding and its absence hold for the method and conditions named. In cells and extracts the contact can be indirect. Some binding calls cover weakened binding; strength is not graded here. For part of these data: Sequences can lack the tags named with a protein.

Assays:
PLK1-Flag (human) [1] = target: PLK1-Flag (human) (UniProt P53350); assay: co-IP; HEK293T co-transfected with UHRF1-His and Flag-tagged PLK1 (full length or truncated); IP with anti-Flag or anti-His; RIPA extracts, antibody 4 °C 12 h, protein A/G magnetic beads; western blot
PLK1-Flag (human) [2] = target: PLK1-Flag (human) (UniProt P53350); assay: co-IP; DU145 transfected with PLK1-Flag and UHRF1-His wild type or mutants (in Fig. 4J synchronised at S phase, lysate not treated with PP2A); IP anti-Flag, blot anti-His
PLK1-Flag (human) [3] = target: PLK1-Flag (human) (UniProt P53350); assay: condition: only cell lysate treated with PP2A phosphatase before immunoprecipitation; co-IP; DU145 transfected with PLK1-Flag and UHRF1-His wild type or S682D, synchronised at S phase; cell lysate treated with PP2A phosphatase before IP anti-Flag, blot anti-His
PLK1-Flag (human) [4] = target: PLK1-Flag (human) (UniProt P53350); assay: co-IP; DU145 transfected with PLK1-Flag and UHRF1-His wild type or S682D, synchronised at S phase; cell lysate treated with PP2A phosphatase before IP anti-Flag, blot anti-His
[5] = target: PLK1 (endogenous) (human (endogenous in DU145 and BT549)) (UniProt P53350); assay: co-IP; endogenous proteins, DU145 and BT549 lysates; IP with anti-PLK1 or anti-UHRF1; also DU145 synchronised at G1/S by double thymidine, released, or arrested in M phase with nocodazole (IP anti-UHRF1)

Row | Binder | binding (PLK1-Flag (human) [1]) | binding (PLK1-Flag (human) [2]) | binding (PLK1-Flag (human) [3]) | binding (PLK1-Flag (human) [4]) | binding [5]
1 | UHRF1-His (protein, UniProt Q96T88 1-793) MWIQVRTMDGRQTHTVDSLSRLTKVEELRRKIQELFHVEPGLQRLFYRGKQMEDGHTLFDYEVRLNDTIQLLVRQSLVLPHSTKERDSELSDTDSGCCLGQSESDKSSTHGEAAAETDSRPADEDMWDETELGLYKVNEYVDARDTNMGAWFEAQVVRVTRKAPSRDEPCSSTSRPALEEDVIYHVKYDDYPENGVVQMNSRDVRARARTIIKWQDLEVGQVVMLNYNPDNPKERGFWYDAEISRKRETRTARELYANVVLGDDSLNDCRIIFVDEVFKIERPGEGSPMVDNPMRRKSGPSCKHCKDDVNRLCRVCACHLCGGRQDPDKQLMCDECDMAFHIYCLDPPLSSVPSEDEWYCPECRNDASEVVLAGERLRESKKKAKMASATSSSQRDWGKGMACVGRTKECTIVPSNHYGPIPGIPVGTMWRFRVQVSESGVHRPHVAGIHGRSNDGAYSLVLAGGYEDDVDHGNFFTYTGSGGRDLSGNKRTAEQSCDQKLTNTNRALALNCFAPINDQEGAEAKDWRSGKPVRVVRNVKGGKNSKYAPAEGNRYDGIYKVVKYWPEKGKSGFLVWRYLLRRDDDEPGPWTKEGKDRIKKLGLTMQYPEGYLEALANREREKENSKREEEEQQEGGFASPRTGKGKWKRKSAGGGPSRAGSPRRTSKKTKVEPYSLTAQQSSLIREDKSNAKLWNEVLASLKDRPASGSPFQLFLSKVEETFQCICCQELVFRPITTVCQHNVCKDCLDRSFRAQVFSCPACRYDLGRSYAMQVNQPLQTVLNQLFPGYGNGR | binds | binds | no binding |  | 
2 | UHRF1(S682D)-His (protein, UniProt Q96T88 1-793) MWIQVRTMDGRQTHTVDSLSRLTKVEELRRKIQELFHVEPGLQRLFYRGKQMEDGHTLFDYEVRLNDTIQLLVRQSLVLPHSTKERDSELSDTDSGCCLGQSESDKSSTHGEAAAETDSRPADEDMWDETELGLYKVNEYVDARDTNMGAWFEAQVVRVTRKAPSRDEPCSSTSRPALEEDVIYHVKYDDYPENGVVQMNSRDVRARARTIIKWQDLEVGQVVMLNYNPDNPKERGFWYDAEISRKRETRTARELYANVVLGDDSLNDCRIIFVDEVFKIERPGEGSPMVDNPMRRKSGPSCKHCKDDVNRLCRVCACHLCGGRQDPDKQLMCDECDMAFHIYCLDPPLSSVPSEDEWYCPECRNDASEVVLAGERLRESKKKAKMASATSSSQRDWGKGMACVGRTKECTIVPSNHYGPIPGIPVGTMWRFRVQVSESGVHRPHVAGIHGRSNDGAYSLVLAGGYEDDVDHGNFFTYTGSGGRDLSGNKRTAEQSCDQKLTNTNRALALNCFAPINDQEGAEAKDWRSGKPVRVVRNVKGGKNSKYAPAEGNRYDGIYKVVKYWPEKGKSGFLVWRYLLRRDDDEPGPWTKEGKDRIKKLGLTMQYPEGYLEALANREREKENSKREEEEQQEGGFASPRTGKGKWKRKSAGGGPSRAGSPRRTSKKTKVEPYSLTAQQSDLIREDKSNAKLWNEVLASLKDRPASGSPFQLFLSKVEETFQCICCQELVFRPITTVCQHNVCKDCLDRSFRAQVFSCPACRYDLGRSYAMQVNQPLQTVLNQLFPGYGNGR |  | binds |  | binds | 
3 | UHRF1 (endogenous) (protein, UniProt Q96T88 1-793) MWIQVRTMDGRQTHTVDSLSRLTKVEELRRKIQELFHVEPGLQRLFYRGKQMEDGHTLFDYEVRLNDTIQLLVRQSLVLPHSTKERDSELSDTDSGCCLGQSESDKSSTHGEAAAETDSRPADEDMWDETELGLYKVNEYVDARDTNMGAWFEAQVVRVTRKAPSRDEPCSSTSRPALEEDVIYHVKYDDYPENGVVQMNSRDVRARARTIIKWQDLEVGQVVMLNYNPDNPKERGFWYDAEISRKRETRTARELYANVVLGDDSLNDCRIIFVDEVFKIERPGEGSPMVDNPMRRKSGPSCKHCKDDVNRLCRVCACHLCGGRQDPDKQLMCDECDMAFHIYCLDPPLSSVPSEDEWYCPECRNDASEVVLAGERLRESKKKAKMASATSSSQRDWGKGMACVGRTKECTIVPSNHYGPIPGIPVGTMWRFRVQVSESGVHRPHVAGIHGRSNDGAYSLVLAGGYEDDVDHGNFFTYTGSGGRDLSGNKRTAEQSCDQKLTNTNRALALNCFAPINDQEGAEAKDWRSGKPVRVVRNVKGGKNSKYAPAEGNRYDGIYKVVKYWPEKGKSGFLVWRYLLRRDDDEPGPWTKEGKDRIKKLGLTMQYPEGYLEALANREREKENSKREEEEQQEGGFASPRTGKGKWKRKSAGGGPSRAGSPRRTSKKTKVEPYSLTAQQSSLIREDKSNAKLWNEVLASLKDRPASGSPFQLFLSKVEETFQCICCQELVFRPITTVCQHNVCKDCLDRSFRAQVFSCPACRYDLGRSYAMQVNQPLQTVLNQLFPGYGNGR |  |  |  |  | binds
